The text below walks through data of paper PMC6451091.

The other results are listed elsewhere or left out. For some assays here: At the low end of the ranking, values are background and their order means little. For some assays here: Measured with an extract: partners may take part in the binding.

Details in all cases: 20 mM HEPES pH 7.9, 100 mM NaCl, 1 mM DTT, 0.2 mg/mL BSA, 0.02% Triton X-100, 2% milk, 0.4 mg/mL salmon testes DNA; 1 h; temperature not stated; high values mean tight binding; double strand, one strand shown; sequences stand for … in GCCTAGCAC…GTGCTAGGTCTTGATTCGCTTGACGCTGCTG
Test [1] addresses PU.1 (IVT) (UniProt P17947). The experiment in a line: protein-binding microarray (PBM).
Test [2] has as its target PU.1 (endogenous, THP-1 nuclear extract) (UniProt P17947). As to the kind of experiment: nuclear extract protein-binding microarray (nextPBM).
In test [3] the target is T1, FLI1 (endogenous, THP-1 nuclear extract) (UniProt Q01543).
T1 sequence: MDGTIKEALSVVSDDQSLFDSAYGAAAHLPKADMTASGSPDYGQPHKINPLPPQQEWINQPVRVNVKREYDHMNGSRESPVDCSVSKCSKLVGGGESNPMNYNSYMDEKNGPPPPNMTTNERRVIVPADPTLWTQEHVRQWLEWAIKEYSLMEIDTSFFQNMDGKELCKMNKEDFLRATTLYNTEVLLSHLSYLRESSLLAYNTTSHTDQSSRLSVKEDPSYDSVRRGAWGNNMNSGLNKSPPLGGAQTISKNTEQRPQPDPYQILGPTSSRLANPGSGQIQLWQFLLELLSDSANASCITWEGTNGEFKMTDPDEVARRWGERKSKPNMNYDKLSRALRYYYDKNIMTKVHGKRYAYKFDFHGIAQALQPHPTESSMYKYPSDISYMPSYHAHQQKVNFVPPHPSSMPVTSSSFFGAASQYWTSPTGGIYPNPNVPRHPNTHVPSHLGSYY
Described as above.

Test [4] relates to PU.1 (endogenous, THP-1 nuclear extract) + IRF8 (endogenous, THP-1 nuclear extract). The test is described as above.

As to TGTGAAAAATGACAAAGCAC, the binding signal in test [1] is 0.00629 z-score; in test [2], -0.298 z-score; in test [3], -0.428 z-score; in test [4] it was -1.06 z-score.

For the sequence TTCCACCCCCTCAGAGGAAG, the binding signal in test [1] is 1.84 z-score; in test [2], 2.01 z-score; in test [3] it was 2 z-score; in test [4] it was -0.725 z-score.

Take GCAATACTTTACACTCAACT: the binding signal in test [1] was -0.266 z-score; in test [2] it was -0.331 z-score; in test [3] it was -0.166 z-score; in test [4], -1.62 z-score.

As to GATAAAATTCAAACCTTCAA, the binding signal in test [1] is 0.752 z-score; in test [2] it was -0.267 z-score; in test [3] it was -0.161 z-score; in test [4], -0.203 z-score.

Turning to TAAAATTGAAAATGCTAAAT, the binding signal is -0.408 z-score in test [1], -0.52 z-score in test [2], -0.33 z-score in test [3] and -0.336 z-score in test [4].

For TAAAAGGTTAATTAGTTCCA, the binding signal in test [1] was 0.152 z-score; in test [2], 0.194 z-score; in test [3], -0.105 z-score; in test [4] it was 0.651 z-score.

Regarding CATGTGCTACTACTCTGAGC, the binding signal in test [1] is -0.184 z-score; in test [2] it was -0.693 z-score; in test [3] it was -0.64 z-score; in test [4], -0.596 z-score.

On to CAGTTTTTGACATCTTATCA, for which the binding signal in test [1] is -0.0371 z-score; in test [2], -0.398 z-score; in test [3], -0.163 z-score; in test [4], -0.347 z-score.

As for GTTGCCATCATCTCTATAGC, the binding signal is -0.212 z-score in test [1], -0.418 z-score in test [2], 0.167 z-score in test [3] and -0.483 z-score in test [4].

Turning to CCAGCCTGGCCAAAGTGGTG, the binding signal in test [1] is -0.775 z-score; in test [2], -0.158 z-score; in test [3] it was -1.19 z-score; in test [4] it was 0.547 z-score.

As for GGCTTTGAAATGAATTTTAG, the binding signal in test [1] is 0.0972 z-score; in test [2] it was -0.433 z-score; in test [3], -0.529 z-score; in test [4], -1.16 z-score.

On to GCAGGCAGGGCTGTACCAGG, for which the binding signal in test [1] is -0.58 z-score; in test [2], -0.332 z-score; in test [3], -0.597 z-score; in test [4], 1.86 z-score.

Consider CCTTCCCAGCCTGTGCCGGA, for which the binding signal in test [1] was -0.713 z-score; in test [2], 0.0362 z-score; in test [3], 0.066 z-score; in test [4], -0.358 z-score.

For the sequence GAAGAAGCTGCGTGAAAGAG, the binding signal in test [1] was -0.117 z-score; in test [2], -0.252 z-score; in test [3] it was -0.373 z-score; in test [4], -1.5 z-score.

As for GTTTGCTTACTGCCGGGACA, the binding signal is -0.568 z-score in test [1], -0.663 z-score in test [2], 0.0825 z-score in test [3] and 0.0253 z-score in test [4].

With ATTCTCCAGCCTCAGCCTCC, the binding signal is -0.718 z-score in test [1], -0.191 z-score in test [2], -0.132 z-score in test [3] and -0.51 z-score in test [4].

As for GTAATCCTAGCACTTTTTGG, the binding signal in test [1] was -0.0126 z-score; in test [2], -0.834 z-score; in test [3], -0.934 z-score; in test [4], -1.82 z-score.

As for GTACCACATTCGAAATTGAA, the binding signal was -0.0236 z-score in test [1], -0.249 z-score in test [2], -0.801 z-score in test [3] and 0.175 z-score in test [4].

Regarding TTAATGAGTTCAGAGTTTCA, the binding signal in test [1] was -0.429 z-score; in test [2] it was -0.291 z-score; in test [3], -0.135 z-score; in test [4] it was 1.98 z-score.

For TCCCAGGCAATCTACTCTTT, the binding signal was -0.646 z-score in test [1], -0.0563 z-score in test [2], -0.258 z-score in test [3] and -0.0505 z-score in test [4].

In the case of ACAAACAAACAAAAGCTCAC, the binding signal in test [1] was -0.0367 z-score; in test [2] it was 0.295 z-score; in test [3] it was 0.191 z-score; in test [4] it was 0.455 z-score.

With GTCTGGAGGGCGGACGCGAG, the binding signal in test [1] was -0.689 z-score; in test [2] it was 0.0878 z-score; in test [3], 0.686 z-score; in test [4], 0.701 z-score.

In the case of ACAAACGCTGCGTGAAAGCT, the binding signal in test [1] was -0.452 z-score; in test [2], -0.538 z-score; in test [3], -0.598 z-score; in test [4], -0.852 z-score.

TGCTTTTACTTATTTGTGCA: the binding signal in test [1] is -0.536 z-score; in test [2], -0.483 z-score; in test [3], 0.0784 z-score; in test [4] it was -1.36 z-score.

Turning to GCTTTAGCTGCCTGAAAGCG, the binding signal in test [1] was -0.439 z-score; in test [2], -0.69 z-score; in test [3], -0.698 z-score; in test [4], -1.08 z-score.

Take GATGGCCTAGATCGCTCGGG: the binding signal in test [1] is -0.856 z-score; in test [2], -0.372 z-score; in test [3], -1.61 z-score; in test [4], 0.406 z-score.
